# Source: PubChem BioAssay AID588855 (National Center for Advancing Translational Sciences (NCATS), 2011)
# Several values for one entry are separate records, joined by “and”; a condition that tells them apart may be missing. Equal entries are not always repeated. Hit rate of the full screen: of about 410,000 compounds, about 5,000 (1.2%) were called active. The inconclusive results got no clear call from the source; some entries with a clear call stand among them for comparison. Calls come from the whole dose curve; as a rule, active = well fitted inhibition curve with a large enough effect; inconclusive = small, poorly fitted or top-dose-only effect; inactive = no such curve, though single readings can be large or run the other way. Where the call is inconclusive, the potency comes from a doubtful curve fit.
# Assay: qHTS for Inhibitors of TGF-b; note: nearly all actives have a fitted effect of over 65% in size
# Conditions: HepG2 CAGA-GFP TGF-b/SMAD3 reporter, GFP fluorescence, 18 h, TGF-beta stimulated, 500 pg/mL final; series mostly up to 46.1 µM
# Summary of the method: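 Using HEPG2 CAGA-GFP reporter cells at 1000 cells/well, we pinned test compounds, stimulated with recombinant TGF-beta (500 pg/mL final) and measured total well GFP after 18 h.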
# Potency is the fitted concentration of half-maximal effect; tags give direction and shape of the fitted curve.
row,Structure (SMILES),Potency
1,O=C(c1cc(COc2c(F)cccc2F)on1)N1CCC(c2ccccc2F)C1 (stereo not drawn),inactive
2,O=C(CN1C(=O)c2ccccc2Sc2ccc(C(=O)N3CCOCC3)cc21)Nc1ccc(Cl)cc1F,inactive
3,COc1ccc(NC(=O)CCN2CCOCC2)c(OC)c1,"inconclusive: 35.5 µM [inhibitor, single point]"
4,COc1ccc(C2/C=C\CN(CC(C)C)CC(=O)N2Cc2ccc(F)cc2)cc1 (stereo not drawn),"inconclusive: 7.08 µM [inhibitor, partial curve, poor fit] and inconclusive: 35.5 µM [inhibitor, single point]"
5,Cc1ccnc2ccc(F)cc12,inactive
6,COCCC(=O)NC12CC3CC(CC(C3)C1)C2,"inconclusive: 22.4 µM [inhibitor, single point]"
7,CCN(CC(O)Cn1c2ccccc2c2ccccc21)S(=O)(=O)c1ccc(C)cc1 (stereo not drawn),active: 10 µM
8,CCCN1Cc2cccc(C(=O)Nc3cc(Cl)ccc3C)c2C1=O,inactive
9,Cc1cc(C)cc(NC(=S)N2CCN(Cc3ccccc3)CC2)c1,"inconclusive: 7.94 µM [inhibitor, partial curve, poor fit]"
10,COc1ccc(OC)c(NC(=O)CCc2c[nH]c3ccccc23)c1,"inconclusive: 0.891 µM [inhibitor, full curve, poor fit]"
11,CC(=O)Nc1ccc(C(=O)Nc2cccc(-c3cnc4ccccc4n3)c2)cc1,"inconclusive: 2.82 µM [inhibitor, partial curve, poor fit]"
12,CC1CCN(C(=O)Cn2c(-c3cccs3)cc3cc(Cl)ccc32)CC1,"inconclusive: 11.2 µM [inhibitor, single point]"
13,COc1cccc(NC(=O)Nc2ccc3c(c2)N(C)C(=O)c2ccccc2S3)c1,"inconclusive: 25.1 µM [inhibitor, single point]"
14,COC(=O)c1ccccc1NC(=O)c1ccccc1N(C)S(=O)(=O)c1ccccc1,"inconclusive: 11.2 µM [inhibitor, partial curve]"
15,CCCCOC(=O)c1c(C)oc2c1cc(NS(=O)(=O)c1cc(OC)ccc1OC)c1ccccc12,"inconclusive: 7.08 µM [inhibitor, partial curve]"
16,CCOc1ccc(-c2nnc(SCC(=O)Nc3cccc(C#N)c3)o2)cc1,"inconclusive: 5.62 µM [inhibitor, full curve]"
17,c1ccc(CN2CCN(c3nc(-c4ccccc4)nc(-n4ccnc4)n3)CC2)cc1,"inconclusive: 35.5 µM [inhibitor, single point]"
18,CC(=O)O[C@H]1[C@H](O)[C@H](Oc2c(O)c(C)c3c4c2[C@@H](C)CC[C@@H]4[C@@H](C)C[C@H]3C=C(C)C)O[C@@H](C)[C@H]1O,active: 11.2 µM
19,CCC1C(C#N)=C(SCC(N)=O)NC2=C1C(=O)CC(C)(C)C2 (stereo not drawn),inactive
20,CCN(Cc1ccccc1)S(=O)(=O)c1cc(Br)cc2c1N(C(=O)C1CC1)CC2,"inconclusive: 15.8 µM [inhibitor, single point]"
21,Cc1ccc(NC(=O)c2cnc(N3CCCC3)nc2C)cc1F,"inconclusive: 15.8 µM [inhibitor, partial curve, poor fit]"
22,O=C(Nc1nccs1)C1CC2CCC1C2 (stereo not drawn),inactive

row,Structure (SMILES),Potency
1,CCCCNC(=O)O[C@@H]1C[C@H]2CCC(=O)N3CC[C@@H](C1)[C@@H]23,inactive
2,Cc1cc(C)c(S(=O)(=O)Nc2nnc(C)s2)c(C)c1,inactive
3,COc1ccc(C2NCCc3c2[nH]c2ccccc32)cc1CSc1nc2ccccc2s1 (stereo not drawn),"inconclusive: 11.2 µM [inhibitor, partial curve, poor fit]"
4,O=C1c2ccccc2S(=O)(=O)c2cc(C(=O)N3CCC(O)CC3)ccc21,inactive
5,Cc1cc(C(=O)NNC(=S)NCc2ccccc2)cs1,"inconclusive: 28.2 µM [inhibitor, single point]"
6,COc1ccc(NC(C)=O)cc1NC(=O)c1cccc(S(=O)(=O)N2CCc3ccccc32)c1,inactive
7,O=C(Nc1ccc(Cl)cn1)Nc1ccccc1F,"inconclusive: 35.5 µM [inhibitor, single point]"
8,Cc1cc(SC#N)cc(C)c1NC(=O)CCl,"inconclusive: 17.8 µM [inhibitor, partial curve, poor fit]"
9,CN(CC(=O)Nc1cccc(F)c1)C(=O)c1cn(-c2ccccc2)nc1-c1ccccc1,inactive
10,COc1ccc(OC)c(S(=O)(=O)N(C)CC(=O)N2CCN(c3ccccc3F)CC2)c1,"inconclusive: 35.5 µM [inhibitor, single point]"
11,CCOC(=O)c1c(CN2CCN(CCO)CC2)n(-c2ccccc2)c2cc(Br)c(O)cc12,"inconclusive: 22.4 µM [inhibitor, single point]"
12,COc1ccc(CN2C(=O)C(CC(=O)NCCCCc3ccccc3)CC(C(=O)N(C)C)=C2C)cc1 (stereo not drawn),inactive
13,CCCCSc1nc2sc3c(c2c(=O)n1-c1ccccc1C)CC(C)(C)OC3,inactive
14,Cc1ccc2onc(CC(=O)N3CCN(c4cccc(Cl)c4)CC3)c2c1,"inconclusive: 0.708 µM [inhibitor, full curve, poor fit]"
15,COc1ccc(NC(=O)Cn2c(=O)oc3cc(S(=O)(=O)N4CCCCCC4)ccc32)cc1OC,"inconclusive: 0.501 µM [inhibitor, full curve, poor fit]"
16,Cc1ccc(NC(=O)C2(C)CCN2C(=O)Cc2cc(F)ccc2F)cc1 (stereo not drawn),inactive
17,O=C(c1ccccc1Br)N1N=C(c2ccccc2)CC1c1ccccc1F (stereo not drawn),"inconclusive: 22.4 µM [inhibitor, single point]"
18,COc1cccc(/C=N/NC(=O)C(C)Cn2cnc3ccccc32)c1 (stereo not drawn),"inconclusive: 14.1 µM [inhibitor, partial curve, poor fit]"
19,CCOC(=O)C1=CC[C@@H](c2ccc(F)cc2)N(S(=O)(=O)c2ccc(C)cc2)[C@H]1c1ccccc1,"inconclusive: 3.98 µM [inhibitor, partial curve]"
20,CCOC(=O)C1=C(CSc2nc3ccccc3s2)NC(=O)NC1c1ccc(OC)cc1 (stereo not drawn),"inconclusive: 17.8 µM [inhibitor, single point]"
21,FC(F)(F)c1cc(-c2ccccc2)nc2cc(-c3ccccc3)nn12,inactive
